Reference: patent US20190062399A1 (Bristol-Myers Squibb, published 2019)

T1: B7-1Ig (CD80-Ig fusion protein) (UniProt P33681 35-242, limits assumed)
T1 construct: also called B7Ig; not shown: immunoglobulin (Ig) portion
T1 sequence (looked up): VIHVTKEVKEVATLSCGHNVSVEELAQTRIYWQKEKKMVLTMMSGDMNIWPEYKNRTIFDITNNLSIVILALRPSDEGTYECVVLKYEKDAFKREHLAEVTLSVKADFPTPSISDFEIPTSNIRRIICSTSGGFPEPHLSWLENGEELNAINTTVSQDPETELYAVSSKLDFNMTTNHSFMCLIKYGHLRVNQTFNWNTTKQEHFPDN


Key:
[1] = molecular target: T1, B7-1Ig (CD80-Ig fusion protein); test: SPR (Biacore), mass transfer limited conditions on high-density B7-1Ig chip
[2] = molecular target: T1, B7-1Ig (CD80-Ig fusion protein); test: SPR kinetics (Biacore), 75-200 nM analyte over B7-1Ig chip (694 RU)
Procedure: In Table 11, sample concentrations of 75-200 nM were tested on B7-1Ig chip (694 RU).

initial binding rate relative to CTLA4-Ig dimer [1] | Ka [2] | Kd [2] | koff [2] | kon [2] | Binder
~0.8 fold of the dimer's rate | 2.04e+07 M⁻¹ | 48.9 nM | 0.00807 s⁻¹ | 165000 M⁻¹ s⁻¹ | CTLA4-Ig tetramer (purified from HIC cleaning peak) (Fc fusion, glycosylated; lower sialic acid than the dimer, Two covalent dimers associated non-covalently; Isolated by Protein A chromatography and preparative SEC of the HIC cleaning peak) not shown
– | 2.59e+07 M⁻¹ | 38.7 nM | 0.00588 s⁻¹ | 152000 M⁻¹ s⁻¹ | CTLA4-Ig dimer purified from the HIC cleaning peak (Fc fusion, glycosylated; sialic acid content low compared to CTLA4-Ig dimer, Same polypeptide as m1, but a separate preparation (SEC fraction of the Protein A eluate of the HIC cleaning peak); also called purified dimer) not shown
– | 1.25e+07 M⁻¹ | 79.9 nM | 0.0123 s⁻¹ | 154000 M⁻¹ s⁻¹ | CTLA4-Ig hexamer (hexamer/multimer fraction of HIC cleaning peak) (Fc fusion, glycosylated) not shown
– | 4.18e+07 M⁻¹ | 23.9 nM | – | 403000 M⁻¹ s⁻¹ | CTLA4-Ig dimer (CTLA4-Ig dimer standard / CTLA4-Ig reference material) (Fc fusion, glycosylated: N-linked at Asn102, Asn134, Asn233 and O-linked at Ser155/156, Ser165 (numbering of SEQ ID NO:2), also called CTLA4-Ig material; CLTA4-Ig dimer standard) not shown
– | 3.16e+07 M⁻¹ | 31.7 nM | 0.00988 s⁻¹ | 312000 M⁻¹ s⁻¹ | Dimerized tetramer (CTLA4-Ig tetramer converted to dimer by guanidine treatment) (Fc fusion, glycosylated, Tetramer from the HIC cleaning peak, treated with guanidine and dialysed into phosphate buffer; also called guanidine-treated CTLA4-Ig dimer; tetramer which was disaggregated) not shown
